Laboratory results published in paper PMC3566084.
These are yes or no findings as the source states them, for the method shown. Binding seen in cells or lysates may run through a third protein. Some binding calls cover weakened binding; strength is not graded here.

Chains of the proteins cited; added tags and fusions are not shown.
UniProt P62834: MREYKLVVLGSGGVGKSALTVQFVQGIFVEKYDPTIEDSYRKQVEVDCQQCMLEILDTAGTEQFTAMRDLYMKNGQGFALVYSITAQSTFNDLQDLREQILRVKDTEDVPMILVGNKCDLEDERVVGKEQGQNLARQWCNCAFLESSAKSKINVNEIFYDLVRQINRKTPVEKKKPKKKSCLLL
UniProt Q92633: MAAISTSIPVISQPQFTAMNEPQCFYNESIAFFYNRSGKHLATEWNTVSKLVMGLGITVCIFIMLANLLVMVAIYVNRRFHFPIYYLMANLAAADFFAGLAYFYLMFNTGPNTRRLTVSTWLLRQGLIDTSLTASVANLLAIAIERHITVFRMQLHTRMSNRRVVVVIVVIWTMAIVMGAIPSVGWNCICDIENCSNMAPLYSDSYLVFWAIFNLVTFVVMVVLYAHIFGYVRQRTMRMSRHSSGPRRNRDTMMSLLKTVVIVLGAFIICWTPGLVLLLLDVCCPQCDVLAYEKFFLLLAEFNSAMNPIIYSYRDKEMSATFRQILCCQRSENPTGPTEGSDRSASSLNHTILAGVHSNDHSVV
UniProt P46940: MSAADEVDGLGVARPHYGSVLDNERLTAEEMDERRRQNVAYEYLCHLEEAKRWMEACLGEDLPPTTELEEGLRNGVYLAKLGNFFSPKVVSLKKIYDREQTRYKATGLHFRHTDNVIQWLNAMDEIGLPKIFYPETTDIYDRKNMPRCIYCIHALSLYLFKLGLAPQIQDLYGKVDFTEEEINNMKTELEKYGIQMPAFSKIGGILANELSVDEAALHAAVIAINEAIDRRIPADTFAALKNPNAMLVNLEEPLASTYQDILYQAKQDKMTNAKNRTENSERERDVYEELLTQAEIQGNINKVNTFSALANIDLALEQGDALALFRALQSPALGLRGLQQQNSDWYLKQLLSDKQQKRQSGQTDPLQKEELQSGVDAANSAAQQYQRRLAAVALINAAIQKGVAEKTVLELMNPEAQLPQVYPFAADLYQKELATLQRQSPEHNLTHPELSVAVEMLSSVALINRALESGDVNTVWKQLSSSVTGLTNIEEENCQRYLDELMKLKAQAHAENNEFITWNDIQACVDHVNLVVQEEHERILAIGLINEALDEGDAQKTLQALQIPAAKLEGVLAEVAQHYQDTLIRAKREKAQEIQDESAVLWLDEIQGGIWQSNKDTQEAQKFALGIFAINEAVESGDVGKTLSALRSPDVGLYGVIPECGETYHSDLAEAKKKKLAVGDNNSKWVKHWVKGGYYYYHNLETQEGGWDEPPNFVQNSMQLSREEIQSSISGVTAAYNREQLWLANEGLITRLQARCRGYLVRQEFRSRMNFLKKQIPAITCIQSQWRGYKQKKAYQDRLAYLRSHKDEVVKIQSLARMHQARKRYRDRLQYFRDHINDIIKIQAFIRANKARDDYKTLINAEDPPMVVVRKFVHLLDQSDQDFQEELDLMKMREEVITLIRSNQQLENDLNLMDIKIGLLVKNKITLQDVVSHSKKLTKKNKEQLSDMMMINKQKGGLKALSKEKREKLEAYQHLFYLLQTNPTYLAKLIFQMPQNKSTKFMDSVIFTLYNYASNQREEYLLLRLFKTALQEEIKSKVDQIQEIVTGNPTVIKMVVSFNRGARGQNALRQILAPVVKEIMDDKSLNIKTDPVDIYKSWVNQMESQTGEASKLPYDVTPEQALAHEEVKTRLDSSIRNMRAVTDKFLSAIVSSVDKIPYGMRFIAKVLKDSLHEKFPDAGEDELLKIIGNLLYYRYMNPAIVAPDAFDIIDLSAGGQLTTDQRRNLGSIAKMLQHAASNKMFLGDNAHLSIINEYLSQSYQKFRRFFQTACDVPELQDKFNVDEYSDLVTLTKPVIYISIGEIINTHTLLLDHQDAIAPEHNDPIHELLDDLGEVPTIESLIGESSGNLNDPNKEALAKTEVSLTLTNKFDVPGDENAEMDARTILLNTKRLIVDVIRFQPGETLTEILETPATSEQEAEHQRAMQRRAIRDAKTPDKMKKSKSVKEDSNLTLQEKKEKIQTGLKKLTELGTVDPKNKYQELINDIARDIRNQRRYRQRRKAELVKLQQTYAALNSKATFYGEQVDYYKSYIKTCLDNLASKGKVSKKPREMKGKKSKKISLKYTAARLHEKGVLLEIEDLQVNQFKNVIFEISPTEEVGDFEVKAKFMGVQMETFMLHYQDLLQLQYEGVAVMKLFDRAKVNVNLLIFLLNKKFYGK
UniProt P32121: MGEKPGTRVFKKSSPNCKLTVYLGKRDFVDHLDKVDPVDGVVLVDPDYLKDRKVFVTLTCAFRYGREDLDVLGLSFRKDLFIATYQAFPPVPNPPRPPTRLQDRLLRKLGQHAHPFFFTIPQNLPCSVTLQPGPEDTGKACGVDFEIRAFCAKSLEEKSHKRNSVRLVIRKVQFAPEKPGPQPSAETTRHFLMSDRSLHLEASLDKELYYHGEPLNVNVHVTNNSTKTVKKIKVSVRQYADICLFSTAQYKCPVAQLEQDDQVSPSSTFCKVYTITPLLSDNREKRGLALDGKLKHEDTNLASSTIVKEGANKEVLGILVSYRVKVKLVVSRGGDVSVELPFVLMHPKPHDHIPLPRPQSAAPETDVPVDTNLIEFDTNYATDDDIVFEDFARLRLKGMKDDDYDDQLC

How the values were obtained:
[1] = biological target: YFP-Rap1A (UniProt P62834); assay: co-IP; MDA-MB-231 cells, serum-starved 4 h, without or with 10 µM LPA; precipitation with an anti-GFP monoclonal antibody, blot with a rabbit anti-IQGAP1 antibody
[2] = biological target: T1, RalA (UniProt P11233); assay: as above
T1 sequence: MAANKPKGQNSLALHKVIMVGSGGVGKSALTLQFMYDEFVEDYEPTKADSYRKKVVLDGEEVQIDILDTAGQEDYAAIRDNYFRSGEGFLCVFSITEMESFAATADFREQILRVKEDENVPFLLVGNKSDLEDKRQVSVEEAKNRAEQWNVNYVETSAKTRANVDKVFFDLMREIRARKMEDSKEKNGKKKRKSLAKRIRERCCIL

[3] = biological target: FLAG-LPA1 (UniProt Q92633); assay: co-IP; MDA-MB-231 cells stably expressing FLAG-LPA1, serum-starved 4 h, without or with 10 µM LPA (5 to 30 min); precipitation with a mouse anti-FLAG monoclonal antibody, blot for the endogenous partner
[4] = biological target: IQGAP1 (human (endogenous in MDA-MB-231 and Hs578T)) (UniProt P46940); assay: co-IP; endogenous proteins in Hs578T lysates, cells serum-starved 4 h, without or with 10 µM LPA; precipitation with a rabbit anti-Rap1A or rabbit anti-IQGAP1 antibody, blot with a monoclonal anti-β-arrestin2 antibody
[5] = biological target: IQGAP1 (human (endogenous in MDA-MB-231 and Hs578T)) (UniProt P46940); assay: co-IP; endogenous proteins in MDA-MB-231 lysates, cells serum-starved 4 h, without or with 10 µM LPA; precipitation with a rabbit anti-Rap1A or rabbit anti-IQGAP1 antibody, blot with a monoclonal anti-β-arrestin2 antibody

| Substance | binding [1] | binding [2] | binding [3] | binding [4] | binding [5] |
| --- | --- | --- | --- | --- | --- |
| IQGAP1 (from UniProt P46940 1-1657) | binds | no binding | binds |  |  |
| Rap1A (from UniProt P62834 1-184) |  |  | binds |  |  |
| β-arrestin2 (from UniProt P32121 1-409) |  |  |  | binds | binds |
